Assay results: article PMC9911399, “Two distinct binding modes provide the RNA-binding protein RbFox with extraordinary sequence specificity”
Residue numbers refer to the chain shown, from its start. This is one part of the list.

T1: RBFOX1 RRM (Homo sapiens, UniProt Q9NWB1 109-208)
T1 sequence: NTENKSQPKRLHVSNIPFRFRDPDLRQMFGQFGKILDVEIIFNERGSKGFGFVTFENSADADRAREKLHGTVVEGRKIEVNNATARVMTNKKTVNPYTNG

B1: CCAACUC (DNA:RNA)
RNA: GGGAGACCGGAAUUCAGAUUGUCCCCAACUCUUAAAUCCCGUCGUAGCCACCA
DNA 1: CAATCTGAATTCCGGTCTCCC
DNA 2: TGGTGGCTACGACGGGATT
B2: AUCGUUC (DNA:RNA)
RNA: B1 RNA with C25A, C26U, A27C, A28G, C29U
DNA 1: CAATCTGAATTCCGGTCTCCC
DNA 2: TGGTGGCTACGACGGGATT
B3: ACAUAGA (DNA:RNA)
RNA: B1 RNA with C25A, A28U, C29A, U30G, C31A
DNA 1: CAATCTGAATTCCGGTCTCCC
DNA 2: TGGTGGCTACGACGGGATT
B4: GUCCAGG (DNA:RNA)
RNA: GGGAGACCGGAAUUCAGAUUGUCCGUCCAGGUUAAAUCCCGUCGUAGCCACCA
DNA 1: CAATCTGAATTCCGGTCTCCC
DNA 2: TGGTGGCTACGACGGGATT
B5: AAUGAUG (DNA:RNA)
RNA: B4 RNA with G25A, U26A, C27U, C28G, G30U
DNA 1: CAATCTGAATTCCGGTCTCCC
DNA 2: TGGTGGCTACGACGGGATT
B6: UCAAGCU (DNA:RNA)
RNA: B1 RNA with C25U, C29G, U30C, C31U
DNA 1: CAATCTGAATTCCGGTCTCCC
DNA 2: TGGTGGCTACGACGGGATT
B7: ACGUUUA (DNA:RNA)
RNA: B1 RNA with C25A, A27G, A28U, C29U, C31A
DNA 1: CAATCTGAATTCCGGTCTCCC
DNA 2: TGGTGGCTACGACGGGATT
B8: UGUACUG (DNA:RNA)
RNA: B1 RNA with C25U, C26G, A27U, C31G
DNA 1: CAATCTGAATTCCGGTCTCCC
DNA 2: TGGTGGCTACGACGGGATT
B9: GUUGUGC (DNA:RNA)
RNA: B4 RNA with C27U, C28G, A29U, G31C
DNA 1: CAATCTGAATTCCGGTCTCCC
DNA 2: TGGTGGCTACGACGGGATT

The binders below were run against T1, RBFOX1 RRM (assay: EMSA; HiTS-Eq, 1 nM pool, 10 min; buffer printed only for the single-RNA assays: 10 mM Tris pH 7.5, 150 mM NaCl, 3.4 mM EDTA, 0.001% NP-40, 30 C). Details: tags: His6 N-terminal (pET28a); label: 5' 32P.
Procedure, shortened: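 Purified RbFox RRM (wild type or mutant) was equilibrated for 10 min in 50 µL with 1 nM of a 5′-radiolabelled pool of RNA with 7 randomized nucleotides, its flanks annealed to DNA oligonucleotides, across increasing protein concentrations. Free RNA was separated by 8% native PAGE, excised, reverse-transcribed, PCR-barcoded and sequenced on an Illumina HiSeq 2500. Relative association constants came from read-count changes of each variant against the control reaction, normalised to the cognate motif.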

Binder | binding signal
B1 | 0.00202 KA relative to UGCAUGU
B2 | 0.00992 KA relative to UGCAUGU
B3 | 0.00152 KA relative to UGCAUGU
B4 | 0.0174 KA relative to UGCAUGU
B5 | 0.0128 KA relative to UGCAUGU
B6 | 0.00676 KA relative to UGCAUGU
B7 | 0.00169 KA relative to UGCAUGU
B8 | 0.0177 KA relative to UGCAUGU
B9 | 0.0279 KA relative to UGCAUGU
